# Assay results published in PubChem BioAssay AID1468 (National Center for Advancing Translational Sciences (NCATS), 2008).
# About 1,100 (0.39%) of roughly 280,000 compounds were called active. Inconclusive means that the source gave no clear call. Such entries were picked first, then a sample of the others. Calls follow the shape of the dose curve; as a rule, active = well fitted inhibition curve with a large enough effect; inconclusive = small, poorly fitted or top-dose-only effect, or effect the other way; inactive = flat fitted curve, though single readings scatter. Potencies of inconclusive entries are left out as doubtful fits.
# Molecular target: Microtubule-associated protein tau (Homo sapiens) (UniProt P10636)
# UniProt P10636, sequence (P10636 whole entry, looked up): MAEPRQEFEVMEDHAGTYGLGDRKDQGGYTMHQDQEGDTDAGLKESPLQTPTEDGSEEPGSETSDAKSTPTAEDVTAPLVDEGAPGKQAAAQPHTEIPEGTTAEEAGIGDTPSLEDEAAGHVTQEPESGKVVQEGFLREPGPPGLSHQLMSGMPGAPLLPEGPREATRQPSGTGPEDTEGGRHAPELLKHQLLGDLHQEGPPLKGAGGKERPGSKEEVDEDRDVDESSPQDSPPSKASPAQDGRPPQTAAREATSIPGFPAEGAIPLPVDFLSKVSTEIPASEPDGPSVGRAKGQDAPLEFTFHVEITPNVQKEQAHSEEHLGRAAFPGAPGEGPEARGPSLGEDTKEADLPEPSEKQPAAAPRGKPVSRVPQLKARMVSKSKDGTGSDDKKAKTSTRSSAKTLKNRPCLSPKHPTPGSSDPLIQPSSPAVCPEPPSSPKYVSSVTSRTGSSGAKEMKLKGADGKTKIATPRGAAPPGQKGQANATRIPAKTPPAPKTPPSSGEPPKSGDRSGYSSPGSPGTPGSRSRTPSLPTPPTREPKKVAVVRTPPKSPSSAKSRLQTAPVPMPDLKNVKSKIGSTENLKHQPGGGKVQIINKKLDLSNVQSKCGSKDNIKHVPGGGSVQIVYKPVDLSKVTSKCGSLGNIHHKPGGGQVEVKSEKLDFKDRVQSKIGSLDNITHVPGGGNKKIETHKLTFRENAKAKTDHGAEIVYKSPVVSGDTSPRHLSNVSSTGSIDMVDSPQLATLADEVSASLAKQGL
# Test: qHTS for Inhibitors of Tau Fibril Formation, Fluorescence Polarization; also: nearly all actives have a fitted effect of over 55% in size
# Details: K18 P301L tau heparin fibrillization, Alexa594 FP, 6 h; series mostly up to 57.7 µM
# Outline: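 Human K18 P301L fragment (15 uM unlabeled plus 0.24 uM Alexa 594-labeled) in 100 mM sodium acetate pH 7 with compound, aggregation induced by 20 uM heparin for 6 hr at 37 C. ThT (30 uM) added for 1 hr, then Alexa 594 FP read.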
# % is scaled to controls: 0 for no effect and ±100 for the full control effect; potency is read from the fitted curve at half-maximal effect; tags tell the direction and shape of the fitted curve.
Compound,Potency,"activity, negative = inhibition"
COc1ccc(-c2csc(NC(=O)c3ccoc3C)n2)cc1,"inconclusive [inhibitor, single point]",–
NNc1nc2c(F)cccc2s1,"inconclusive [inhibitor, single point]",–
Cc1ccc(OCC(=O)NCc2ccccn2)cc1,"inconclusive [inhibitor, single point]",–
CCOc1cc(CNc2ncn[nH]2)ccc1OCC(=O)NC(C)(C)C,"inconclusive [inhibitor, single point]",–
Cc1csc(N/N=C\c2cccnc2)n1,inactive,–
O=C(N/N=C/c1cn(-c2ccccc2)nc1-c1cccnc1)c1ccc(F)cc1,"inconclusive [inhibitor, single point]",–
Cc1cccc(NCc2nc(SCC(N)=O)n[nH]2)c1,"inconclusive [inhibitor, full curve, poor fit]",–
CCc1ccc(S(=O)(=O)N2CC(=O)Nc3ccccc32)cc1,inactive,–
CCc1ccc(/C=C(\C)C(=O)c2c(C)cc(C)[nH]c2=O)cc1,"inconclusive [activator, partial curve, poor fit]",–
CCOc1ccc(NC(=O)C2CCN(S(=O)(=O)c3c(C)noc3/C=C/c3ccco3)CC2)cc1,"inconclusive [inhibitor, full curve, poor fit]",–
CCOC(=O)c1ccccc1NC(=O)N1CC(C)Oc2ccc(C)cc21 (stereo unspecified),"inconclusive [activator, full curve, poor fit]",–
CSc1nc(=S)cc(C)[nH]1,"inconclusive [inhibitor, single point]",–
C[n+]1nc(Nc2cccc3ccccc23)sc1-c1ccc(C(=O)O)cc1,inactive,–
CC(=O)c1ccc(C(=O)N(Cc2cccnc2)c2nc3c(C)c(C)ccc3s2)cc1,inactive,–
O=C(N/N=C/c1cn(-c2ccccc2)nc1-c1cccs1)c1ccncc1,"inconclusive [inhibitor, partial curve]",–
CCc1ccc(CN(C(=O)Nc2cccc(Cl)c2)c2ccccn2)cc1,"inconclusive [inhibitor, partial curve]",–
CCOc1cc(NC(=S)NCCCN2CCOCC2)c(OCC)cc1NC(=O)C1CCCCC1,"inconclusive [activator, single point]",–
COc1ccc(Cl)cc1NC(=O)c1cnc(N2CCCCC2)c2ccccc12,"inconclusive [inhibitor, single point]",–
Cc1c(Cl)cccc1NS(=O)(=O)c1ccc(NS(=O)(=O)c2ccc3c(c2)OCCO3)cc1,"inconclusive [inhibitor, partial curve]",–
CCOc1ccc(N(C)S(=O)(=O)c2ccc3[nH]cc(C(=O)NCC4CCCO4)c(=O)c3c2)cc1 (stereo unspecified),"inconclusive [inhibitor, partial curve]",–
CCn1c(SCC(=O)Nc2nc3ccccc3s2)nnc1-c1ccc(OC)cc1,"inconclusive [inhibitor, partial curve]",–

Compound,Potency,"activity, negative = inhibition"
N#Cc1c(-c2ccccc2)c(-c2ccccc2)nn(CC(=O)NNC(=O)Nc2ccc(Cl)cc2)c1=O,"inconclusive [inhibitor, single point]",–
CCOC(=O)c1ccc(NC(=O)c2nc[nH]c2C(=O)N[C@@H](Cc2ccccc2)C(=O)OC(C)(C)C)cc1,"inconclusive [inhibitor, partial curve]",–
Cc1ccc2occ(CC(=O)Nc3ccc(Cl)c(C(F)(F)F)c3)c2c1,active: 14.1 µM,–
COc1ccc(C2=C(C)C(N3CCN(c4ccc(OC)cc4)CC3)=NS2(=O)=O)cc1,"inconclusive [inhibitor, single point]",–
CO[C@H]1COC(=O)CCC[C@H](C)[C@H](OC)COC(=O)C/C=C\[C@@H]1C,–,inactive: 3.74% [at 11.6 µM]
COc1ccc(-c2ccc(SCC(=O)NCc3ccco3)nn2)cc1OC,"inconclusive [inhibitor, single point]",–
O=C(Nc1ccc(-c2nc3cc(NC(=O)c4ccc(Cl)cc4)ccc3o2)cc1)c1ccc(Cl)cc1,"inconclusive [inhibitor, partial curve]",–
COc1ccc(CNC(=O)/C=C/c2cc([N+](=O)[O-])ccc2OC(F)F)cc1,"inconclusive [inhibitor, single point]",–
O=C(COC(=O)c1cc(NS(=O)(=O)c2cccs2)ccc1O)Nc1ccccc1,"inconclusive [inhibitor, single point]",–
O=S(=O)(c1ccc(Br)cc1)c1nnn2c1nc(NCCc1ccccc1)c1sccc12,"inconclusive [inhibitor, full curve]",–
COC(=O)c1ccc(NC(=O)Nc2ccccc2F)cc1,"inconclusive [inhibitor, single point]",–
CCOC(=O)c1[nH]c2c(c1-c1ccc(OC)cc1)C(=O)CC(c1ccc(OC)c(OC)c1)C2 (stereo unspecified),inactive,–
COCCNC(=O)C(c1ccc(C)o1)N(Cc1ccc(F)cc1)C(=O)Cn1nnc2ccccc21 (stereo unspecified),"inconclusive [inhibitor, single point]",–
CN(Cc1ccccc1)C(=O)c1cc(-c2cccc(Cl)c2)on1,inactive,–
CCSc1ccccc1C(=O)N=C1NC(=O)CC2C(=O)NCCN12 (stereo unspecified),"inconclusive [inhibitor, single point]",–
Nc1c(C(=O)Nc2ccccc2)c2nc3ccccc3nc2n1-c1ccc(O)cc1,"inconclusive [inhibitor, partial curve]",–
Cc1ccc2c(c1)-c1cc(C)nn1C(c1ccc3c(c1)OCO3)N2 (stereo unspecified),"inconclusive [activator, partial curve, poor fit]",–
CC1(C)CC(=O)C2=C(C1)OC(N)=C(C#N)C2c1ccc[nH]1 (stereo unspecified),inactive,–
COc1ccccc1NC(=O)CSc1oc(-c2ccccc2)nc1S(=O)(=O)c1ccccc1,"inconclusive [inhibitor, partial curve, poor fit]",–
O=c1/c(=C/c2ccccn2)sc2nc3ccccc3n12,"inconclusive [inhibitor, single point]",–
